# Laboratory results reported in the RNAGym collection of RNA variant scans (doi:10.1073/pnas.2313332121).
# Variants at the floor of the assay are shown more often than the library holds them.
# B1: TPR 5TU (parent)
# chain: GGAUCUUCUCGAUCUAACAAAAAAGACAAAUCUGCCACAAAGCUUGAGAGCAUCUUCGGAUGCAGAGGCGGCAGCCUUCGGUGGCGCGAUAGCGCCAACGUUCUCAACUAUGACACGCAAAACGCGUGCUCCGUUGAAUGGAGUUUAUCAUG
# Variants of: B1
# Assay: polymerase ribozyme fitness, log enrichment relative to wild type (log ratio); higher = more active; in vitro selection for triplet polymerase activity
# Method in brief: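 Fitness measures genotype enrichment against wild-type enrichment on a logarithmic scale, with inverse-variance-weighted averaging of replicates. The logarithm is base 2, and genotypes were kept only with ≥10 input reads and ≥1 read per output in Illumina sequencing. The sequenced libraries came from one triplicate in vitro selection round, including frozen incubation at −7 °C, of PCR-built, transcribed mutant libraries of each subunit of a heterodimeric triplet polymerase ribozyme.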
row,Variant,polymerase ribozyme fitness (log ratio)
1,U44G G59U G94C G143U,≤ -4.2
2,U44G G62A,≤ -4.2
3,U44G G84C C85G A142C,≤ -4.2
4,U44G G88C C108G U144C C149U,≤ -4.2
5,U44G G133C A137G U146C,≤ -4.2
6,U44G G141C,≤ -4.2
7,U44G U45G C72G,≤ -4.2
8,U44G U53A A113C A121G A150U,≤ -4.2
9,U44G U53A U77C U78A U90G G94C U127C U139A G141A,≤ -4.2
10,U44G U56A A64G A89U A97G A98G U148C,≤ -4.2
11,U44G U56A C57U C79G C105U,≤ -4.2
12,U44G U56A C79A G124U,≤ -4.2
13,U44G U61A G81C G88U C93G A110G,≤ -4.2
14,U44G U82G,≤ -4.2
15,U45A A47C G86A A107G U127G G140U A150U G152U,≤ -4.2
16,U45A A47U G80U U90A,≤ -4.2
17,U45A A49C G58A,≤ -4.2
18,U45A A49C G80C U102G,≤ -4.2
19,U45A A49C G84A,≤ -4.2
20,U45A A49U U61A G86C,≤ -4.2
21,U45A A52C,≤ -4.2
22,U45A A52G G86A A89U A91C A142C C149G,≤ -4.2
23,U45A A52U U56A C76U,≤ -4.2
24,U45A A64U A97G,≤ -4.2

row,Variant,polymerase ribozyme fitness (log ratio)
1,U45A A73G G83C C85U,≤ -4.2
2,U45A A73U G83A G128U U151A,≤ -4.2
3,U45A A91U C93A,≤ -4.2
4,U45A A91U G140A G141A,≤ -4.2
5,U45A C54U U61A C85U,≤ -4.2
6,U45A C57A C96U G124A,-3.11
7,U45A C72A G86U C99U,≤ -4.2
8,U45A C85U C118A,≤ -4.2
9,U45A C93G,≤ -4.2
10,U45A C95U G128A U146G U148A U151G,≤ -4.2
11,U45A C96U G100U U139G,≤ -4.2
12,U45A C99A A106U A121U C149G G152A,-4.01
13,U45A C125A C149G,≤ -4.2
14,U45A G46C C116U G133A,≤ -4.2
15,U45A G48A C57U A107G,≤ -4.2
16,U45A G48C A60C C76G C79A G92A U127C,≤ -4.2
17,U45A G58C,-2.28
18,U45A G65A G84U C95G G126U,≤ -4.2
19,U45A G67C G84U C108U A120U,≤ -4.2
20,U45A G70A C93U,≤ -4.2
21,U45A G81A U82G U151A,≤ -4.2
22,U45A G84A,-3.44
23,U45A G84A A115C,-3.88
24,U45A G92A U127C G128A U130G,-4.06

row,Variant,polymerase ribozyme fitness (log ratio)
1,U45A G117U,-3.08
2,U45A G126U,-3.51
3,U45A G133A U134C,≤ -4.2
4,U45A U53C C54U C57G G84C,≤ -4.2
5,U45A U55A C93U,-3.88
6,U45A U61A C79U G84U,≤ -4.2
7,U45A U78A U82C C125U U139A,≤ -4.2
8,U45A U78G C85U U134C,≤ -4.2
9,U45A U90G C93G C132U A138U U144A,≤ -4.2
10,U45C A52G A115U A147G C149G,≤ -4.2
11,U45C G48C C99A G143A U148C,≤ -4.2
12,U45C G50C U102C C118G,≤ -4.2
13,U45C G58A A73G A110U A142G,≤ -4.2
14,U45C U53A C57G C72U G83C C85A C93U,≤ -4.2
15,U45C U55A,-1.08
16,U45C U55A G83C G94C U109A C149U,≤ -4.2
17,U45G A47C A142G,-3.91
18,U45G A52C U56C U78G U82A G94U A97U C123G,≤ -4.2
19,U45G A66C C76A G86U C96U,≤ -4.2
20,U45G A91C U101G A147C,≤ -4.2
21,U45G A115G A147C,≤ -4.2
22,U45G C51U C95A C125U,-3.64
23,U45G C54A C87G A121U C123G,≤ -4.2
24,U45G C75U C103G C118G,≤ -4.2

row,Variant,polymerase ribozyme fitness (log ratio)
1,U45G C76A C93U A119G,≤ -4.2
2,U45G C76G G84A C131G,≤ -4.2
3,U45G C87G U139A,≤ -4.2
4,U45G C87U U101C,-3.99
5,U45G C87U U139A,≤ -4.2
6,U45G C93A C95U,-3.98
7,U45G C114U,-2.91
8,U45G G50C C51A A73U C96U A106U U111G,≤ -4.2
9,U45G G50U G58C A64G G141U,≤ -4.2
10,U45G G58C C108A U111A A138U,≤ -4.2
11,U45G G59A,-0.523
12,U45G G70A C87U U144G,≤ -4.2
13,U45G G80C A106G A119U A121U G124C G133U,≤ -4.2
14,U45G G84A A91C C129G G140A,≤ -4.2
15,U45G G128U,-3.86
16,U45G U53A G68A C69A A115G,≤ -4.2
17,U45G U53G G58C C85U C87A C99G A106U G136A A142U,≤ -4.2
18,U45G U56A,0.0147
19,U45G U56A C75U A91U A97G A115G G140A,≤ -4.2
20,G46A A47G G48A G50C G136A,≤ -4.2
21,G46A A49C U101G C132G,≤ -4.2
22,G46A A49G G59U G68A C96U,≤ -4.2
23,G46A A52C C93A U104G C132A,≤ -4.2
24,G46A A60U A64G C85A G94U A120C,≤ -4.2

row,Variant,polymerase ribozyme fitness (log ratio)
1,G46A C54G C95U,-2.17
2,G46A C54U C93A U145A,≤ -4.2
3,G46A C76A G86U A121U U144G,≤ -4.2
4,G46A C85A,-2.16
5,G46A C85G A91C C95G C105U A150G,≤ -4.2
6,G46A C99U G141A,≤ -4.2
7,G46A G59C C76U C96U C116U,≤ -4.2
8,G46A G65C G84U C114G,≤ -4.2
9,G46A G81C G86U A89G U127G G136U G141A A150C,≤ -4.2
10,G46A G83C A89U U134A G141A,≤ -4.2
11,G46A G84U C103A C105G C108G C131G G141C,≤ -4.2
12,G46A U55A A91G A138G A142C,≤ -4.2
13,G46A U90G G92U A115G C116G A137U G143A,≤ -4.2
14,G46C A47C U55G A64C C79A A121U U145C,≤ -4.2
15,G46C A49C U56A C57U G62A C63A C69U G86C C99U G141C U145G C149U A150U,≤ -4.2
16,G46C C54A G70U C85G U130G A147U,≤ -4.2
17,G46C C54U C95U C116U C118G,-2.25
18,G46C C57A A66U A113C,≤ -4.2
19,G46C C63A A66C U78G C79U U101G,≤ -4.2
20,G46C C72U A73C,≤ -4.2
21,G46C C93U U134G G140A,≤ -4.2
22,G46C G50U C79A G80C C95U,≤ -4.2
23,G46C G59C C93G,≤ -4.2
24,G46C G65A C85A,≤ -4.2

row,Variant,polymerase ribozyme fitness (log ratio)
1,G46C G88A C95A A142U A147U,≤ -4.2
2,G46C G94A G128C C129A,≤ -4.2
3,G46C U56A G84A G133C,-2.71
4,G46C U61A G88C C99G U111A G143U U145C,≤ -4.2
5,G46C U102C G136U,≤ -4.2
6,G46C U109G,-1.81
7,G46U A47G G48A G50C A66U U144A A147C,≤ -4.2
8,G46U A49C A66C C79A U82C C96U A142G,≤ -4.2
9,G46U A97G A110U C118G A120U G124U,≤ -4.2
10,G46U C51G C54U,≤ -4.2
11,G46U C54U A73U,-3.31
12,G46U C54U G59U C76U A119U U146A,≤ -4.2
13,G46U C57G A138C,≤ -4.2
14,G46U C69U A73U A120G,≤ -4.2
15,G46U C75A C76G A91U C108G A137G,≤ -4.2
16,G46U C85G,-1.84
17,G46U C87A G88A G143U U148A,≤ -4.2
18,G46U G59A A60C,-2.54
19,G46U G59C C85A A115U,-4.01
20,G46U G74A C85U G117A C123G C129G G140U,≤ -4.2
21,G46U G83U A91U A106U U148C,≤ -4.2
22,G46U G84A A106U A150C,≤ -4.2
23,G46U G94A A97U,≤ -4.2
24,G46U U53A C63A C99G U101G C103A,≤ -4.2

row,Variant,polymerase ribozyme fitness (log ratio)
1,G46U U55A C75U A89G C116G,≤ -4.2
2,G46U U56A C103A A107C,≤ -4.2
3,A47C A49C A91C A122G,≤ -4.2
4,A47C A49C G65A G84A A113G G141A,≤ -4.2
5,A47C A49G G83A G140A,≤ -4.2
6,A47C A49U C51U G59U A64C A119G C149G,≤ -4.2
7,A47C A52G A64U,≤ -4.2
8,A47C A52G G68C A91C,≤ -4.2
9,A47C A52G U77G G94U C99U,≤ -4.2
10,A47C A60G A91U U146A,≤ -4.2
11,A47C A66C G68U C85A C95A C108G,≤ -4.2
12,A47C A89C C103A G140U,≤ -4.2
13,A47C A89U C96U A98G A107U C114G C131A,≤ -4.2
14,A47C A91C G112C G133C C149U,≤ -4.2
15,A47C C51G G68C C76U C87U C93G C103G C105G U127G A137G,≤ -4.2
16,A47C C51U G67C G84A U90A G92A,≤ -4.2
17,A47C C54U C69U C75A C76G,≤ -4.2
18,A47C C54U G84A U109G,-1.84
19,A47C C57G G65U C93A C125U,≤ -4.2
20,A47C C79G G81A U101G,≤ -4.2
21,A47C C87A,≤ -4.2
22,A47C C87U,-0.109
23,A47C C93A A107G G140U,≤ -4.2
